Measurements as given in PubChem BioAssay AID485281 (National Center for Advancing Translational Sciences (NCATS), 2010).
“And” between values parts separate entries of the source, which are not always exact repeats. Identical values can stand only once. About 260 (0.074%) of roughly 350,000 compounds were called active. The inconclusive results got no clear call from the source; some entries with a clear call stand among them for comparison. The call rests on the fitted dose curve; in most records, active means well fitted inhibition curve with a large enough effect; inconclusive means small, poorly fitted or top-dose-only effect; inactive means no such curve, though single readings can be large or run the other way. Potencies beside an inconclusive call are fits to weak or partial responses and may not hold up.

target: Ferritin light chain (Equus caballus) (UniProt P02791); assay: qHTS Assay for Identification of Novel General Anesthetics; conditions: apoferritin/1-aminoanthracene competitive binding, fluorescence; activity change, negative = displacement: at 77.5 µM (top of the series); further: nearly all actives have a fitted effect of over 20% in size
Sequence of UniProt P02791 (P02791 whole entry, looked up): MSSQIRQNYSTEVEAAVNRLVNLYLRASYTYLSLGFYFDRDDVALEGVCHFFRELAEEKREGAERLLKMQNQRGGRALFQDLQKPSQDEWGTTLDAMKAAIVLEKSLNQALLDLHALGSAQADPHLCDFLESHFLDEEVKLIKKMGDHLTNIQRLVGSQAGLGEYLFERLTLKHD
How it was run: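 10 uM apoferritin + 50% sat. 1-AMA, PBS; cpd 10 min RT; Ex380/Em535 endpoint; normalized to free probe vs complex; 4-param Hill fit; propofol titration as pos. ctrl.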
On the % scale 0 is the no-effect control and ±100 the full control effect; potency means the concentration at half of the fitted maximal effect; tags describe the fitted curve by direction and shape.

Compound | activity change, negative = displacement | Potency
COc1ccc(N2C(=O)c3ccccc3NC2c2ccc(OC)c(COc3ccccn3)c2)cc1 (centres undefined) | inactive: 1.33% | 
NNC(=O)Nc1cccc(C(F)(F)F)c1 |  | inconclusive: 35.5 µM [inhibitor, partial curve]
Cc1c(Cl)c([N+](=O)[O-])nn1CCCC(=O)N1CCN(c2ccccc2)CC1 |  | inconclusive: 44.7 µM [inhibitor, partial curve, poor fit]
N/C(=N\OC(=O)CCC1CCCCC1)c1cccc([N+](=O)[O-])c1 |  | inconclusive: 31.6 µM [inhibitor, partial curve]
CCCN1C(=O)N(c2cccc(C)c2)C(C)(O)CC1(C)C (centres undefined) |  | inconclusive: 11.2 µM [inhibitor, partial curve]
Cc1ccc(S(=O)(=O)N2CCOCC2)cc1NC(=O)COC(=O)CCC(=O)c1cccs1 |  | inconclusive: 31.6 µM [inhibitor, single point]
Cc1ccc(-c2nc3ncccn3c2Nc2ccc3c(c2)OCCO3)o1 |  | inconclusive: 31.6 µM [inhibitor, single point]
CC1CN(C(=O)N2CCC(C(=O)N3CCN(c4ccccc4)CC3)CC2)c2cc(Cl)ccc2O1 (centres undefined) | inactive: -4% | 
Cc1cc(C)c2nc(N3CCC(C(=O)N4CCN(C(=O)c5ccco5)CC4)CC3)sc2c1 |  | inconclusive: 25.1 µM [inhibitor, partial curve]
CC(C)=CCC(C)(C)/C=N/NC(N)=O |  | inconclusive: 28.2 µM [inhibitor, partial curve]
COc1ccc(OC)c(C(=O)NC(CC(N)=O)c2ccc(N3CCCCCC3)c([N+](=O)[O-])c2)c1 (centres undefined) |  | inconclusive: 35.5 µM [inhibitor, partial curve, poor fit]
CCOC(=O)N/N=C/c1ccc(OCCSc2ccc(Cl)cc2)c(OCC)c1 | inactive: 24.5% | 
Cc1ccc(N/C=C/c2onc(C)c2[N+](=O)[O-])cc1 | inactive: 0.782% | 
Cc1ccc2c(CC(=O)Nc3ccc(S(=O)(=O)N4CCCCC4C)cc3)coc2c1 (centres undefined) |  | inconclusive: 3.55 µM [inhibitor, partial curve]
CCC1CN(C(=O)Nc2cccc3c2CCCC3)c2cc(Cl)ccc2O1 (centres undefined) |  | inconclusive: 28.2 µM [inhibitor, partial curve]
Cc1ccc2nc(Br)c3c(c2c1)OC(CBr)C3 (centres undefined) |  | inconclusive: 11.2 µM [inhibitor, partial curve]
Cc1oc(-c2ccccc2Cl)nc1CS(=O)CC(=O)NCc1ccc(Cl)cc1 (centres undefined) |  | inconclusive: 35.5 µM [inhibitor, partial curve]
Fc1ccc(NC(=S)N2CCN(C/C=C/c3ccccc3)CC2)c(F)c1 | inactive: -7.67% | 
Cc1cc(C)nc(Nc2cccc3ccccc23)n1 |  | inconclusive: 22.4 µM [inhibitor, partial curve]
Cc1ccc(NC(=O)Cc2coc3ccc(C(C)C)cc23)c(C)c1 | inactive: -5.2% | 

Compound | activity change, negative = displacement | Potency
Cc1ccc(C(=O)N2CCN(C)CC2)cc1S(=O)(=O)N1CCCCC1 |  | inconclusive: 22.4 µM [inhibitor, partial curve, poor fit]
CCC(C)[C@H](N)c1nnc(SCc2cccc(F)c2)o1 (some centres undefined) |  | inconclusive: 31.6 µM [inhibitor, partial curve]
COc1cccc(CNC(=O)C(C)n2ncn3cccc3c2=O)c1OC (centres undefined) |  | inconclusive: 5.01 µM [inhibitor, partial curve]
CCNC(=O)n1nccc1C(C)Oc1ccccc1 (centres undefined) |  | inconclusive: 31.6 µM [inhibitor, single point]
CN(Cc1c(C(=O)N/N=C/c2cccc(F)c2)nnn1-c1nonc1N)c1ccccc1 |  | inconclusive: 4.47 µM [inhibitor, full curve, poor fit]
CSc1cccc(NC(=O)CCc2ccccc2)c1 |  | inconclusive: 14.1 µM [inhibitor, partial curve]
CC(=O)Nc1ccc(S(=O)(=O)N2CCC(c3nnc(-c4ccc(C)cc4)o3)CC2)cc1 |  | inconclusive: 25.1 µM [inhibitor, single point] and inconclusive: 22.4 µM [inhibitor, single point]
O=C(c1ccco1)N1N=C(c2cccs2)CC1c1cc([N+](=O)[O-])ccc1O (centres undefined) |  | inconclusive: 20 µM [inhibitor, partial curve]
COc1cc(-c2nc3cnccn3c2Nc2ccc(C)cc2)ccc1O |  | inconclusive: 35.5 µM [inhibitor, single point]
Cc1cc2c(cc1S(=O)(=O)N1CCN(c3cccc(C)c3C)CC1)OCC(=O)N2 |  | inconclusive: 7.08 µM [inhibitor, partial curve]
COC(=O)C1=C(O)/C(=C\c2ccc(CNC(=O)C(=O)Nc3ccc(C)cc3)o2)N=C1C |  | inconclusive: 25.1 µM [inhibitor, partial curve]
O=S(=O)(/C=C/c1ccccc1)N1CCN(c2cccc(Cl)c2)CC1 |  | inconclusive: 10 µM [inhibitor, partial curve]
O=C(Cn1c(=O)n(CCCS(=O)(=O)C2CCCCC2)c(=O)c2ccccc21)Nc1ccccc1C(F)(F)F |  | inconclusive: 20 µM [inhibitor, partial curve]
Cc1ccc(C(=O)CSc2nnc(N)s2)c(C)c1 |  | inconclusive: 35.5 µM [inhibitor, partial curve]
CCOC(=O)C1=C(CN2CCc3ccccc32)NC(=O)NC1c1cccc([N+](=O)[O-])c1 (centres undefined) |  | inconclusive: 35.5 µM [inhibitor, partial curve]
O=C(COc1ccc(Cl)cc1)Nc1ccc(Cc2ccncc2)cc1 |  | inconclusive: 35.5 µM [inhibitor, single point]
CCCSc1nnc2c(n1)OC(c1ccc(Br)s1)Nc1ccccc1-2 (centres undefined) |  | inconclusive: 22.4 µM [inhibitor, partial curve]
O=C(CN1C(=O)/C(=C/c2ccc(F)cc2)SC1=S)N1CCN(CCc2ccccn2)CC1 |  | inconclusive: 17.8 µM [inhibitor, partial curve]
C/C(CC(=O)Nc1ccc(N(C)C)cc1)=N\NC(=O)c1ccccc1O |  | inconclusive: 39.8 µM [inhibitor, partial curve]
